# In the antibiotic and cytotoxicity screens of Wong et al. (2023):
# The list shows a part of the results.
# Legend:
# HSkMC = human skeletal muscle cells; experiment: cytotoxicity call (relative viability < 0.9); settings: 10 µM
# HepG2 = experiment: cytotoxicity call (relative viability < 0.9); settings: 10 µM
# S. aureus RN4220 = experiment: growth inhibition call (relative growth <= 0.2); settings: 50 µM
SMILES,cytotoxicity call (HSkMC),cytotoxicity call (HepG2),growth inhibition call (S. aureus RN4220)
COc1ccc(S(=O)(=O)Nc2ccc3c(c2)C(=O)N([C@H](C)CO)C[C@H](C)[C@H](CN(C)S(=O)(=O)c2cn(C)cn2)OCCCC[C@@H](C)O3)cc1,inactive,inactive,inactive
CC(C)CC#Cc1cnc2c(c1)C(=O)N([C@@H](C)CO)C[C@@H](C)[C@H](CN(C)S(=O)(=O)c1cccs1)O2,inactive,inactive,inactive
O=C1O[C@@H](c2ccccc2)[C@@H](c2ccccc2)N2[C@@H](c3ccc(O)cc3)[C@]3(C(=O)Nc4ccc(C#CC5=CCCCC5)cc43)[C@@H](C(=O)N3CCCCCCC3)[C@H]12,inactive,inactive,inactive
Cc1noc(C)c1S(=O)(=O)Nc1cccc2c1O[C@@H](CN(C)C(=O)NC1CCCCC1)[C@@H](C)CN([C@@H](C)CO)C2=O,inactive,inactive,inactive
C[C@H](CO)N1C[C@H](C)[C@H](CN(C)S(C)(=O)=O)Oc2ccc(NC(=O)Nc3ccccc3)cc2C1=O,inactive,inactive,inactive
COc1ccc2c3c(n(c2c1)C)[C@@H](CO)N(C[C@]13CCN(CC1)C(=O)c1ccncc1)C(=O)C1CCOCC1,inactive,inactive,inactive
COCC(=O)Nc1ccc2c(c1)OC[C@H](C)N(C(=O)Cc1cccnc1)C[C@@H](C)[C@@H](OC)CN(C)C2=O,inactive,inactive,inactive
C[C@H](CO)N1C[C@H](C)[C@H](CN(C)C(=O)Nc2ccc(C(F)(F)F)cc2)Oc2c(NC(=O)Nc3ccc(F)cc3)cccc2C1=O,inactive,inactive,inactive
COc1ccc(S(=O)(=O)N(C)C[C@@H]2Oc3ccc(NS(=O)(=O)c4ccccc4)cc3C(=O)N([C@@H](C)CO)C[C@H]2C)cc1,inactive,inactive,inactive
Cc1cn([C@H]2C[C@H](N=[N+]=[N-])[C@@H](CO)O2)c(=O)[nH]c1=O,inactive,inactive,inactive
NCCCCCCNC(=O)[C@H]1C[C@H]2C(=O)N[C@@H](Cc3ccccc3)C(=O)N2[C@H]1c1cccc(OCCO)c1,inactive,inactive,inactive
C[C@@H]1CCCCO[C@@H](CN(C)CC2CC2)[C@H](C)CN([C@@H](C)CO)C(=O)c2cc(NC(=O)c3ccccc3)ccc2O1,inactive,inactive,inactive
C[C@H]1CN([C@@H](C)CO)C(=O)c2cc(NS(=O)(=O)c3cccs3)ccc2O[C@@H]1CN(C)S(C)(=O)=O,inactive,inactive,inactive
CCCCc1c(C)nc2ccc(Br)cc2c1SC(N)N,inactive,inactive,inactive
C[C@@H]1CN([C@H](C)CO)C(=O)c2cc(NC(=O)Nc3ccc(F)cc3)ccc2O[C@@H]1CN(C)Cc1ccc(C(F)(F)F)cc1,inactive,inactive,inactive
CN(C)CC(=O)N[C@H]1CC[C@H](CC(=O)O)O[C@H]1CO,inactive,inactive,inactive
C[C@H](CO)N1C[C@H](C)[C@H](CN(C)S(=O)(=O)c2ccc(F)cc2)OCCCC[C@H](C)Oc2ccc(NS(=O)(=O)c3ccc(Cl)cc3)cc2C1=O,inactive,inactive,inactive
C[C@H]1CN([C@@H](C)CO)C(=O)Cc2cc(NC(=O)Nc3cccc4ccccc34)ccc2O[C@H]1CN(C)Cc1ccc(Oc2ccccc2)cc1,inactive,active,inactive
Cc1noc(C)c1N,inactive,inactive,inactive
COc1ccc(CN(C)C[C@H]2OCCCC[C@H](C)Oc3ccc(NC(=O)Nc4ccc(C(F)(F)F)cc4)cc3C(=O)N([C@H](C)CO)C[C@H]2C)cc1,active,active,inactive

SMILES,cytotoxicity call (HSkMC),cytotoxicity call (HepG2),growth inhibition call (S. aureus RN4220)
CN([C@@H](Cc1ccc(OS(=O)(=O)c2cccc3cnccc23)cc1)C(=O)N1CCN(c2ccccc2)CC1)S(=O)(=O)c1cccc2cnccc12,inactive,inactive,inactive
COc1ccc(S(=O)(=O)N(C)C[C@@H]2Oc3ccc(NS(=O)(=O)c4cn(C)cn4)cc3CC(=O)N([C@@H](C)CO)C[C@H]2C)cc1,inactive,inactive,inactive
C[C@H]1CN([C@@H](C)CO)C(=O)Cc2cc(NS(C)(=O)=O)ccc2O[C@H]1CN(C)S(C)(=O)=O,inactive,inactive,inactive
COc1ccc(S(=O)(=O)Nc2cccc3c2O[C@@H](CN(C)S(C)(=O)=O)[C@@H](C)CN([C@@H](C)CO)C3=O)cc1,inactive,inactive,inactive
C[C@H]1CN([C@@H](C)CO)C(=O)c2cc(NC(=O)CCCN(C)C)ccc2O[C@@H]1CN(C)Cc1ccccc1,inactive,inactive,inactive
C[C@@H]1CN([C@@H](C)CO)C(=O)c2cc(NS(C)(=O)=O)ccc2O[C@@H]1CN(C)S(=O)(=O)c1cccs1,inactive,inactive,inactive
C1CN(C2CCOCC2)CCN1,inactive,inactive,inactive
C[C@H](CO)N1C[C@H](C)[C@H](CN(C)Cc2cccc(C(F)(F)F)c2)Oc2ncc(/C=C/c3ccccc3)cc2C1=O,active,active,inactive
CCOC(=O)c1c(C)n[nH]c1N,inactive,inactive,inactive
C[C@H](CO)N1C[C@H](C)[C@H](CN(C)Cc2ccc(Cl)c(Cl)c2)Oc2ccc(NC(=O)Nc3cccc4ccccc34)cc2CC1=O,inactive,inactive,inactive
NC[C@H](c1ccccc1Cl)N1CCOCC1,inactive,inactive,inactive
COc1ccc(CN(C)C[C@H]2OCCCC[C@H](C)Oc3ccc(NC(=O)Nc4cccc5ccccc45)cc3C(=O)N([C@H](C)CO)C[C@@H]2C)cc1,inactive,inactive,inactive
COc1ccc([Si](C)(C)[C@@H]2[C@@H](CCO)O[C@]3(C(=O)N(Cc4cccc(N5C(=O)c6ccccc6Oc6ccccc65)c4)c4ccccc43)[C@H]2C)cc1,inactive,active,inactive
NNC(=O)CS(=O)(=O)c1ccc(C(F)(F)F)cn1,inactive,inactive,inactive
O=C(NCC[C@@H]1CC[C@H](NS(=O)(=O)c2cccc(F)c2)[C@@H](CO)O1)C1CC1,inactive,inactive,inactive
COc1ccccc1CNC(=O)C[C@@H]1C[C@@H]2c3cc(NC(=O)Nc4ccc(C(F)(F)F)cc4)ccc3O[C@@H]2[C@H](CO)O1,inactive,inactive,inactive
COc1ccc(NC(=O)Nc2ccc3c(c2)CC(=O)N([C@H](C)CO)C[C@H](C)[C@@H](CN(C)C(=O)Nc2cccc4ccccc24)O3)cc1,inactive,inactive,inactive
Cc1noc(C)c1NC(=O)N(C)C[C@@H]1OCCCC[C@H](C)Oc2ccc(NC(=O)NC3CCCCC3)cc2C(=O)N([C@@H](C)CO)C[C@@H]1C,inactive,inactive,inactive
C[C@H](CO)N1C[C@H](C)[C@H](CN(C)C(=O)Nc2cccc(Oc3ccccn3)c2)OCc2cnnn2CCCC1=O,inactive,inactive,inactive
